Test [1] concerns the target T1, Rab9a (human (endogenous in HeLa S3)) (UniProt P51151).
T1 sequence: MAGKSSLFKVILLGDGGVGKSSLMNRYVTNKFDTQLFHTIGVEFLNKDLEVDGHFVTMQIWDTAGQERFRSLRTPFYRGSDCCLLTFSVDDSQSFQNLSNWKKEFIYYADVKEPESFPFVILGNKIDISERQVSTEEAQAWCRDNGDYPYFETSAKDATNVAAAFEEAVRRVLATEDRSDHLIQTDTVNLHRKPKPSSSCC
Description: proximity ligation; HeLa S3 cells, mock-infected or infected with HPV16 PsV (MOI ~200), fixed at 3.5-16 hpi, Duolink PLA with a mouse and a rabbit antibody. Cells were in part transfected with siNC, siRab9a, siRab7 or siDENND2D, or stably expressing DN Rab7. DMSO controls. For L1-Rab9a also BafA or XXI (markedly reduced), for L1-VPS35 also XXI (greatly reduced).

By UniProt entry, the sequences of proteins in these tests, tags left out.
UniProt P03101: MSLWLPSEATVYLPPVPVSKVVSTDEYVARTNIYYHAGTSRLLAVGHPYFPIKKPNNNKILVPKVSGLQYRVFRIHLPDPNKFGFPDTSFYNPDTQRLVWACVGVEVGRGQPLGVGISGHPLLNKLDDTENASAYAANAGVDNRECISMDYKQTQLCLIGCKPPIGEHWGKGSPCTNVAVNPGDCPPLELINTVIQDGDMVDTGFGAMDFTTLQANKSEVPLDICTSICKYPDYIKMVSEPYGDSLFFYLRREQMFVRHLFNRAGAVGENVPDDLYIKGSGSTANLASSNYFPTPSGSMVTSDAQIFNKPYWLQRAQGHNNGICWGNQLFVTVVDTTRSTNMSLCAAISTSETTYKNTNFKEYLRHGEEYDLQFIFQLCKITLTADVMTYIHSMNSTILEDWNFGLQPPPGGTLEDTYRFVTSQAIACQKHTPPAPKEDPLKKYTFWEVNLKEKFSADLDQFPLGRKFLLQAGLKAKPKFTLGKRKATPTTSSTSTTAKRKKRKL
UniProt P03107: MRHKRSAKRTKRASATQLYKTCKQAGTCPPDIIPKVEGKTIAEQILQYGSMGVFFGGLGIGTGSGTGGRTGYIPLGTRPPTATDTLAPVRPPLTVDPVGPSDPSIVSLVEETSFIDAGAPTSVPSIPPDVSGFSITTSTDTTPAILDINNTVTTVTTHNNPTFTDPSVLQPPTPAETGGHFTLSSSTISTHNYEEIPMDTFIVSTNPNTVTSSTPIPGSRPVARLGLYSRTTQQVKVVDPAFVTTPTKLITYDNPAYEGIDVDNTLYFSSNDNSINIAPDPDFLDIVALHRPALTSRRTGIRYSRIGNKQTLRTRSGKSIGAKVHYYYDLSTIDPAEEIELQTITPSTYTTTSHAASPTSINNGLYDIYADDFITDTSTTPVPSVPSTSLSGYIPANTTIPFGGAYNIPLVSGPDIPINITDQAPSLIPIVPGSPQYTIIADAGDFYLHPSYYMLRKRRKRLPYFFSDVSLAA

In test [2] the target is T1, Rab9a (human (endogenous in HeLa S3)). Description: condition: only PsV with the 3R mutant L2 (RKRRKR replaced by RRR), which is impaired for protrusion into the cytoplasm; proximity ligation; As a1, with HPV16 PsV containing HA-tagged 3R mutant L2 (RKRRKR replaced by RRR) compared with HA-tagged wild-type L2; 8 hpi, antibodies to L1 and Rab9a.
The target is the same in test [3]. Description: condition: only with 2 μM γ-secretase inhibitor XXI; proximity ligation; As a1, with 2 μM γ-secretase inhibitor XXI added to the medium 30 min before infection; 3.5 hpi, antibodies to FLAG (L2) and Rab9a.
For test [4] the target is unchanged. Description: co-IP; As a5, with 100 nM Bafilomycin A1 added 30 min before infection.
Test [5] shares this target. Description: condition: only with 100 nM Bafilomycin A1 (endosomal acidification inhibited); proximity ligation; As a1, with 100 nM Bafilomycin A1 added to the medium 30 min before infection (3.5 hpi for FLAG(L2)-Rab9a; 8 hpi for L1-VPS35).
The target is the same in test [6]. Description: co-IP; HeLa S3 infected with HPV16 PsV L2-3XFLAG (MOI ~100). Cross-linked in cells with 1.5 mM DSP for 30 min at 6.5 hpi. Lysed in 20 mM HEPES pH 7.4, 50 mM NaCl, 5 mM MgCl2, 1% DDM, 0.05% Triton X-100. IP with anti-Rab9a and protein G magnetic beads, blot with anti-FLAG.

No constants are given. Whether binding was seen depends on the method and setting. In cells and extracts the contact can be indirect. Some results given as binding are weak or reduced against the parent protein; the word gives no strength.

As for “HPV16 major capsid protein L1 (from UniProt P03101 1-505)”, the values for the binding entry in test [1] and in test [2] were “binds” and “no binding”, respectively.

For the substance “HPV16 minor capsid protein L2 with C-terminal 3xFLAG tag (from UniProt P03107 1-473)”, the binding result in test [1] is listed as “binds”; in test [3] it was “no binding”; in test [4], “no binding (condition: with 100 nM Bafilomycin A1)”; in test [5], “no binding”; in test [6] it was “binds”.

For the origin of these results see PMC10519607.
